Assay results reported in PubChem BioAssay AID686978 (National Center for Advancing Translational Sciences (NCATS), 2013).
The whole screen tested about 420,000 compounds, of which about 64,000 (15%) were called active. This list was built around the results that the source calls inconclusive (neither active nor inactive); the mix of calls is not that of the screen. The call rests on the fitted dose curve; in most records, active means well fitted inhibition curve with a large enough effect; inconclusive means small, poorly fitted or top-dose-only effect; inactive means flat fitted curve, though single readings scatter. No potency is given beside an inconclusive call; the fits are too rough.

Experiment: qHTS for Inhibitors of human tyrosyl-DNA phosphodiesterase 1 (TDP1): qHTS in cells in absence of CPT; further: nearly all actives have a fitted effect of over 55% in size
Conditions: DT40 Tdp1-/- hTDP1 cells, no CPT, ATP luminescence, 48 h; activity change, negative = growth inhibition: at 46.2 µM (top of the series) unless noted
Method in brief: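 Compound effects on proliferation are scored in DT40 Tdp1-/-;hTDP1 cells in the absence of CPT. ATP levels (CellTiter-Glo luminescence) are recorded after a ≥48 hr, 37 °C incubation.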
On the % scale 0 is the no-effect control and ±100 the full control effect; potency means the concentration at half of the fitted maximal effect; tags describe the fitted curve by direction and shape.

Compound	Potency	activity change, negative = growth inhibition
O=C(CC1C(=O)N(Cc2ccccc2)C(=S)N1CCN1CCOCC1)Nc1ccc(F)cc1 (stereo unspecified)	inconclusive [inhibitor, single point]	
CCCCc1c(-c2ccccc2OC)ncn1CCc1ccc(OC)cc1	active: 23.1 µM	
Clc1cccc(CNc2ccn3nc(-c4cccs4)cc3n2)c1	inconclusive [inhibitor, single point]	
Cc1ccc(C(C#N)c2ccc3c(C(F)(F)F)cc(C(F)(F)F)nc3n2)cc1 (stereo unspecified)	active: 18.4 µM	
Cc1cccc2cc(CN(Cc3ccc(F)cc3)C(=O)N3CCOCC3)c3nnnn3c12	inconclusive [inhibitor, single point]	
Cc1cc(C)c2c(N)c(C(=O)Nc3ccc([N+](=O)[O-])cc3)sc2n1		inactive: 17.6%
Cn1ccc(=Nc2ccc(NC(=O)c3ccc(N=c4ccn(C)c5ccc([N+](=O)[O-])cc45)cc3)cc2)cc1	active: 3.66 µM	
O=C(Cn1cnc2c(nnn2Cc2ccc(F)cc2)c1=O)Nc1cccc(F)c1	inconclusive [inhibitor, partial curve]	
Cc1ccc(C)c(OCCC(=O)OCC(=O)NNC(=O)c2ccccc2)c1		inactive: 1.79%
O=C1c2cc(S(=O)(=O)NCCO)ccc2-c2ccc(S(=O)(=O)NCCO)cc21		inactive: -16.6%
COc1ccc(CCNCc2ccc(OCc3ccc(Cl)nc3)c(OC)c2)cc1OC	inconclusive [inhibitor, single point]	
CS(=O)(=O)c1ccccc1-c1nnc(NC(=O)c2ccc(S(=O)(=O)N3CCCC3)cc2)o1		inactive: -3.12%
O=C(NNC(=O)c1ccccc1O)c1ccc(Br)cc1	inconclusive [inhibitor, single point]	
Cc1nc2ccc(NC(=O)N3CCOCC3)cc2nc1C		inactive: 0.621%
CCCS(=O)(=O)N1CCCC(C(=O)NCCN(Cc2ccccc2)C(C)C)C1 (stereo unspecified)		inactive: -9.25%
Cc1cccc(OCC(=O)Nc2cc(S(=O)(=O)N3CCCCC3)ccc2N2CCN(C)CC2)c1	inconclusive [inhibitor, single point]	
O=C(C1=C[C@@H](c2ccc(C(F)(F)F)cc2)C[C@@H](OCCCCO)O1)N1CCCCCCC1	inconclusive [inhibitor, single point]	
CCN(CC(=O)Nc1ccc(NC(C)=O)cc1)C(=O)c1cc(CN2C(=O)c3ccccc3C2=O)ccc1OC		inactive: 6.63%
COc1cc(S(=O)(=O)O)c(C)cc1N=Nc1c(O)ccc2cc(S(=O)(=O)O)ccc12		inconclusive: -32.2% [inhibitor]
CCOC(=O)N1CCN(C(=O)Cc2ccc(-n3c(=O)[nH]c4ccccc4c3=O)cc2)CC1		inactive: -9.25%
O=C(Nc1ccccn1)[C@@H]1CCC(=O)N1C(=O)OCc1ccccc1		inactive: 4.48%
Cc1cccc(Oc2ccc(S(=O)(=O)N3CCCCC3)cc2NC(=O)C2=COCCO2)c1	inconclusive [inhibitor, single point]	
CC(=C\c1ccco1)/C=C(\C#N)C(=O)NCCc1c[nH]c2ccccc12	inconclusive [inhibitor, single point]	
CCOc1ccc(CNC(=O)c2ccc(Sc3ccc(C)cc3)c(N)c2)cc1OC	inconclusive [inhibitor, single point]	

Compound	Potency	activity change, negative = growth inhibition
CC(C)(C)c1ccc(NC(=O)C2=CC=CN3CCS(=O)(=O)N=C23)cc1		inconclusive: -32% [inhibitor]
CCn1c(=O)c2cc(C(=O)NCCc3ccc(OC)c(OC)c3)sc2c2ccccc21	active: 7.31 µM	
Cc1ccc2nc(Cl)c3cc(C(=O)N4CCCC(C)C4)sc3c2c1 (stereo unspecified)	inconclusive [inhibitor, single point]	
Cc1cc2cc(C)c(NCCNC(=O)c3ccccc3)nc2cc1C	inconclusive [inhibitor, single point]	
COc1ccc2cc(C(=O)C3CCCN(C(=O)c4cccnc4)C3)ccc2c1 (stereo unspecified)	inconclusive [inhibitor, single point]	
NC(c1csc(Nc2ccccn2)n1)c1ccccc1Cl (stereo unspecified)	inconclusive [inhibitor, single point]	
Cc1cc(/C=C2\SC(=Nc3ccccc3)NC2=O)c(C)n1-c1ccc(S(N)(=O)=O)cc1	active: 2.59 µM	
CC(C)(C)OC(=O)N1CCC(c2c(C(=O)NCC3CCN(C4CCCC4)C3)cnn2-c2ccc(F)cc2)CC1 (stereo unspecified)	inconclusive [inhibitor, single point]	
COc1cc(NC2c3ccccc3C(=O)N2Cc2ccc3c(c2)OCO3)cc(OC)c1OC (stereo unspecified)		inconclusive: -30.1% [inhibitor]
Nc1nc(Nc2cccc(F)c2)nc(NCc2ccco2)c1[N+](=O)[O-]	inconclusive [inhibitor, single point]	
CN(C)c1ccc(/C=N/NC(=O)c2ccccc2)cc1	inconclusive [inhibitor, partial curve, poor fit]	
O=C(/C=C/c1ccc(O)c(O)c1)O[C@@H]1C[C@@](O)(C(=O)O)C[C@H](O)[C@@H]1O		inactive: -3.79%
Cc1ccc(-c2csc(NC(=O)Cc3cccs3)n2)cc1C		inactive: -1.64%
CCCN(CC)c1ncnc2[nH]ncc12	inconclusive [inhibitor, partial curve]	
COC(=O)c1cc2c(ccc3ccccc32)oc1=O	inconclusive [inhibitor, partial curve]	
c1ccc(CCc2nn3c(Cn4nnc5ccccc54)nnc3s2)cc1	inconclusive [inhibitor, single point]	
CC1(C)C(=O)Nc2ccccc2N1C(=O)Cn1ncc(Cl)c(Cl)c1=O	active: 23.1 µM	
COCCN(C)Cc1cn(-c2ccc(F)cc2F)nc1-c1ccccc1C	inconclusive [inhibitor, partial curve]	
Cc1cc(C)cc(NC(=O)NCc2ccccn2)c1		inactive: 19.2%
O=C(Nc1cc(Cl)ccc1Cl)C1CCCO1 (stereo unspecified)		inactive: -16.1%
Cn1c(=O)cc(OCC(=O)N2CCCc3ccccc32)c2ccccc21	inconclusive [inhibitor, single point]	
COCCN(C(=S)Nc1ccc(OC)cc1)C1CCN(C(C)C)CC1		inactive: 1.18%
COC(=O)CSc1nnc(-c2cccc(O)c2)o1		inactive: 16.2%
COC(=O)Cn1c(SCCOc2ccccc2Cl)nc2ccccc21	inconclusive [inhibitor, single point]	

Compound	Potency	activity change, negative = growth inhibition
CCn1c(SCC(=O)c2cc(OC)ccc2OC)nnc1C1CC1	inconclusive [inhibitor, partial curve]	
CCC1C(=O)NCCN1Cc1ccc2c(c1)CN(Cc1ccc(OC)c(OC)c1)CCO2 (stereo unspecified)		inactive: -24.7%
COc1ccccc1N1CCN(C(=O)CNC(=O)c2ccc(Cl)cc2Cl)CC1	inconclusive [inhibitor, single point]	
O=C(CCS(=O)(=O)c1nc(-c2ccc3c(c2)OCO3)cc(C(F)(F)F)n1)Nc1ccccc1C(F)(F)F	active: 23.1 µM	
Cc1cccc2sc(N(CCCN(C)C)C(=O)c3sc4ccccc4c3Cl)nc12	active: 23.1 µM	
CCc1ccccc1NC(=O)c1cc(S(=O)(=O)N2CCC(C)CC2)cn1C	inconclusive [inhibitor, single point]	
CC1(C(=O)NS(=O)(=O)Cc2ccccc2)CCN1C(=O)c1ccc(C2CCCCC2)cc1 (stereo unspecified)		inactive: -8.42%
CCOC(=O)C(C(C)=O)c1nc(C)nc2c1nnn2Cc1ccccc1Cl (stereo unspecified)	inconclusive [inhibitor, single point]	
CC1(C)Cc2c(C#N)c(N3CCN(C(=O)c4ccco4)CC3)nc(Cc3ccccc3)c2CO1	inconclusive [inhibitor, single point]	
FC(F)(F)c1cnc(NNC(=S)Nc2cccnc2)c(Cl)c1	active: 20.6 µM	
CSCCC(C(=O)OCC(=O)c1ccc(C)c(C)c1)N1C(=O)c2ccccc2C1=O (stereo unspecified)		inconclusive: -32.3% [inhibitor]
Cc1ccc(NCc2ccc([N+](=O)[O-])s2)cc1		inactive: -6.84%
COc1ccc(N2CC(C(=O)N3CCN(c4ccccc4OC)CC3)CC2=O)cc1 (stereo unspecified)		inactive: -28.1%
COc1ccc(NC(=O)C2CCN(S(=O)(=O)c3ccc4c(c3)CC(C)N4C(C)=O)CC2)cc1OC (stereo unspecified)	inconclusive [inhibitor, single point]	
COc1ccc(-c2cc(C(F)(F)F)n3nc(C(=O)Nc4cccc(Cl)c4Cl)cc3n2)cc1OC		inactive: -2.54%
Cc1nn(C2CCS(=O)(=O)C2)c(Cl)c1/C=C/C(=O)OCC(=O)Nc1ccccc1OC(F)F (stereo unspecified)	inconclusive [inhibitor, partial curve]	
CCc1ccc(CNC(=O)c2ccc(NC(=O)N3CCSc4ncccc43)cc2)cc1	inconclusive [inhibitor, single point]	
CC1(C)CC(=O)C=C(c2ccc(-c3ccccc3)cc2)C1=O	active: 25.9 µM	
O=C(NCc1ccc(F)cc1)c1cc(C2CCCCN2C(=O)C2CCCCC2)on1 (stereo unspecified)	active: 23.1 µM	
CC(C)(C)NC(=O)CSc1nc2cc(S(=O)(=O)N3CCCCC3)ccc2o1	inconclusive [inhibitor, partial curve, poor fit]	
O=C(CN1C(=O)NC2(CCCCC2)C1=O)NCCc1ccc(Cl)cc1Cl	inconclusive [inhibitor, partial curve]	
O=C(NCC1Cc2cccc(-c3ncccn3)c2O1)C1CCCO1 (stereo unspecified)		inactive: -21.1%
CCOC(=O)c1ccc2nc(NC(=O)c3ccco3)sc2c1	inconclusive [inhibitor, single point]	
